Results on 18 compounds are retold here after patent US7592316B2, “Peptides as NS3-serine protease inhibitors of hepatitis C virus” (Schering Corporation, priority 2000, dated 2009).

Usually Ki stands for the equilibrium dissociation constant of an inhibitor or competing ligand from its target.

*1 amine or outer side, *2 acyl side, *3 side chain or, on linkers, in order; H or OH if unused. Where a SMILES comes first, the peptide text is derived from it. [ ]: non-standard residue; d: D form. The star is where a group is joined. ξ: configuration not given here. Pro(3R,4S-CMe2) = CC1(C)[C@@H]2[C@@H](C(=O)O)NC[C@@H]21; Pro(3S,4R-CMe2) = CC1(C)[C@H]2[C@@H](C(=O)O)NC[C@H]21; X82 = O=C(c1ccccc1)[C@@H]1CCCC[C@@H]1C(=O)*; X80 = O=C(c1ccccc1)[C@H]1CCCC[C@H]1C(=O)*; X91 = O=C(O)[C@H]1CCCC[C@@H]1C(=O)*; X94 = O=C(O)[C@@H]1CCCC[C@H]1C(=O)*; X4 = CCCCC(N[*:1])C(=O)C(=O)[*:2]; X87 = O=C(c1ccccc1)c1ccccc1C(=O)*; Hyp = O=C(O)[C@@H]1C[C@@H](O)CN1; X2 = CCCC(N[*:1])C(=O)C(=O)[*:2]; X77 = O=C(O)C(Cc1ccccc1)C(=O)*; X97 = CCOc1ccc2ccccc2c1C(=O)*; CH2CO2tBu = CC(C)(C)OC(=O)C*; Phg = N[C@H](C(=O)O)c1ccccc1; Tle = CC(C)(C)[C@H](N)C(=O)O; X93 = CC(C)c1ccc(CC(=O)*)cc1; X85 = Cc1cc(C)cc(CC(=O)*)c1; X76 = C#Cc1ccc(OC(=O)*)cc1; X79 = CC(Cc1ccccc1)C(=O)*; X92 = CC(C)(C(=O)O)C(=O)*; ξChg = NC(C(=O)O)C1CCCCC1; ξPhg = NC(C(=O)O)c1ccccc1; Carboxymethyl = O=C(O)C*; X78 = O=C(Cc1cccc(F)c1)*; X86 = CC(CC(=O)O)CC(=O)*; X72 = O=C(Oc1ccccc1)*; ξNle = CCCCC(N)C(=O)O; X69 = CCC(C)OC(=O)*; Bn = c1ccc(C*)cc1; MEM = COCCOC*

In one assay the target is HCV NS3/NS4A protease (strain 1a) (Hepatitis C virus genotype 1a, UniProt P27958). The assay can be described thus: biochemical. The settings on record: Compounds prepared by Solid Phase Synthesis, Table 3; read-out: Ki* CLASS.
Regarding `CCCCC(NC(=O)CNC(=O)C(=O)C(CCC)NC(=O)[C@@H]1C[C@@H](OCc2ccccc2)CN1C(=O)C(NC(=O)C(Cc1ccccc1)C(=O)O)C1CCCCC1)C(N)=O` (stereo partly drawn) (X77-[ξChg][Hyp](Bn)[X2]G[ξNle]-NH2), the Ki is above 1 µM. Still for that read-out and setting: the same measure for `CCCCC(NC(=O)CNC(=O)C(=O)C(CCC)NC(=O)[C@@H]1C[C@@H](OCC(=O)OC(C)(C)C)CN1C(=O)C(NC(=O)Cc1cccc(F)c1)C1CCCCC1)C(N)=O` (stereo partly drawn) (X78-[ξChg][Hyp](CH2CO2tBu)[X2]G[ξNle]-NH2): above 1 µM; for `CCCCC(NC(=O)CNC(=O)C(=O)C(CCC)NC(=O)[C@@H]1C[C@@H](OCc2ccccc2)CN1C(=O)C(NC(=O)C(C)Cc1ccccc1)C1CCCCC1)C(N)=O` (stereo partly drawn) (X79-[ξChg][Hyp](Bn)[X2]G[ξNle]-NH2): above 1 µM.

Consider `CCCCC(NC(=O)CNC(=O)C(=O)C(CCC)NC(=O)[C@@H]1C[C@@H](OCOCCOC)CN1C(=O)C(NC(=O)C(C)Cc1ccccc1)C1CCCCC1)C(N)=O` (stereo partly drawn) (X79-[ξChg][Hyp](MEM)[X2]G[ξNle]-NH2), for which the Ki is above 1 µM.

For the compound `CCCCC(NC(=O)[C@@H]1C[C@@H](OCc2ccccc2)CN1C(=O)C(NC(=O)[C@@H]1CCCC[C@@H]1C(=O)c1ccccc1)C1CCCCC1)C(=O)C(=O)NCC(=O)NC(C(N)=O)c1ccccc1` (stereo partly drawn) (X80-[ξChg][Hyp](Bn)[X4]G[ξPhg]-NH2), the inhibitory constant (Ki) was in the range of 0.101 to 1 µM. For `CCCCC(NC(=O)C(CCCC)NC(=O)CNC(=O)C(=O)C(CCC)NC(=O)[C@@H]1C[C@@H](OCc2ccccc2)CN1C(=O)C(NC(=O)[C@H]1CCCC[C@H]1C(=O)c1ccccc1)C1CCCCC1)C(N)=O` (stereo partly drawn) (X82-[ξChg][Hyp](Bn)[X2]G[ξNle][ξNle]-NH2), the inhibition constant (Ki) is above 1 µM.

`CCCCC(NC(=O)CNC(=O)C(=O)C(CCC)NC(=O)[C@@H]1C[C@@H](OCC(=O)O)CN1C(=O)C(NC(=O)Cc1cc(C)cc(C)c1)C1CCCCC1)C(N)=O` (stereo partly drawn) (X85-[ξChg][Hyp](Carboxymethyl)[X2]G[ξNle]-NH2): the inhibition constant (Ki) was above 1 µM. As for `CCCC(NC(=O)[C@@H]1C[C@@H](OCc2ccccc2)CN1C(=O)C(NC(=O)CC(C)CC(=O)O)C1CCCCC1)C(=O)C(=O)NCC(=O)NC(C(=O)O)c1ccccc1` (stereo partly drawn) (X86-[ξChg][Hyp](Bn)[X2]G[ξPhg]-OH), the Ki lay in the range of 0.001 to 0.1 µM. The same measure, in the same setting: the same measure for `CCCC(NC(=O)[C@@H]1C[C@@H](OCc2ccccc2)CN1C(=O)C(NC(=O)c1ccccc1C(=O)c1ccccc1)C1CCCCC1)C(=O)C(=O)NCC(=O)NC(C(N)=O)c1ccccc1` (stereo partly drawn) (X87-[ξChg][Hyp](Bn)[X2]G[ξPhg]-NH2): above 1 µM. For `CCCCC(NC(=O)[C@@H]1C[C@@H](OCc2ccccc2)CN1C(=O)C(NC(=O)c1ccccc1C(=O)c1ccccc1)C1CCCCC1)C(=O)C(=O)NCC(=O)NC(C(N)=O)c1ccccc1` (stereo partly drawn) (X87-[ξChg][Hyp](Bn)[X4]G[ξPhg]-NH2), the Ki was 0.101 to 1 µM.

Consider `CCCCC(NC(=O)C(CCCC)NC(=O)CNC(=O)C(=O)C(CCC)NC(=O)[C@@H]1C[C@@H](OCc2ccccc2)CN1C(=O)C(NC(=O)[C@H]1CCCC[C@@H]1C(=O)O)C1CCCCC1)C(N)=O` (stereo partly drawn) (X91-[ξChg][Hyp](Bn)[X2]G[ξNle][ξNle]-NH2), for which the Ki is 0.101 to 1 µM. On to `CCCC(NC(=O)[C@@H]1C[C@@H](OCc2ccccc2)CN1C(=O)C(NC(=O)C(C)(C)C(=O)O)C1CCCCC1)C(=O)C(=O)NCC(=O)NC(C(=O)O)c1ccccc1` (stereo partly drawn) (X92-[ξChg][Hyp](Bn)[X2]G[ξPhg]-OH), for which the Ki is 0.101 to 1 µM. The same measure, in the same setting: the same measure for `CCCCC(NC(=O)CNC(=O)C(=O)C(CCC)NC(=O)[C@@H]1C[C@@H](OCC(=O)O)CN1C(=O)C(NC(=O)Cc1ccc(C(C)C)cc1)C1CCCCC1)C(N)=O` (stereo partly drawn) (X93-[ξChg][Hyp](Carboxymethyl)[X2]G[ξNle]-NH2): above 1 µM. As for `CCCCC(NC(=O)[C@@H]1C[C@@H](OCc2ccccc2)CN1C(=O)C(NC(=O)[C@@H]1CCCC[C@H]1C(=O)O)C1CCCCC1)C(=O)C(=O)NCC(=O)NC(C(N)=O)c1ccccc1` (stereo partly drawn) (X94-[ξChg][Hyp](Bn)[X4]G[ξPhg]-NH2), the inhibition constant Ki is 0.101 to 1 µM. Take `CCCCC(NC(=O)C(CCCC)NC(=O)CNC(=O)C(=O)C(CCC)NC(=O)[C@@H]1C[C@@H](OCc2ccccc2)CN1C(=O)C(NC(=O)c1c(OCC)ccc2ccccc12)C1CCCCC1)C(N)=O` (stereo partly drawn) (X97-[ξChg][Hyp](Bn)[X2]G[ξNle][ξNle]-NH2): the inhibition constant (Ki) lay within 0.101 to 1 µM.

The assay is the same for the next values; noted with them: Ki* Range, Table 5; HCV NS3/NS4A protease, spectrophotometric assay, 30° C., pH 6.5.
On to `CCCC(NC(=O)[C@@H]1[C@@H]2[C@H](CN1C(=O)[C@@H](NC(=O)Oc1ccccc1)C(C)(C)C)C2(C)C)C(=O)C(=O)NCC(=O)N[C@H](C(=O)N(C)C)c1ccccc1` (stereo partly drawn) (X72-[Tle][Pro(3R,4S-CMe2)][X2]G[Phg]-NMe2), for which the Ki was in the range of 0.001 to 0.1 µM.

The compound `C#Cc1ccc(OC(=O)N[C@H](C(=O)N2C[C@@H]3[C@H]([C@H]2C(=O)NC(CCCC)C(=O)C(=O)NCC(=O)N[C@H](C(=O)N(C)C)c2ccccc2)C3(C)C)C(C)(C)C)cc1` (stereo partly drawn) (X76-[Tle][Pro(3S,4R-CMe2)][X4]G[Phg]-NMe2) registered a Ki of 0.101 to 1 µM.

Still in this assay, the particulars now being: Table 5; HCV NS3/NS4A protease, spectrophotometric assay, 30° C., pH 6.5; read-out: Ki* Range.
`CCCCC(NC(=O)[C@@H]1[C@H]2[C@@H](CN1C(=O)[C@@H](NC(=O)OC(C)CC)C(C)(C)C)C2(C)C)C(=O)C(=O)NCC(=O)N[C@H](C(=O)N(C)C)c1ccccc1` (stereo partly drawn) (X69-[Tle][Pro(3S,4R-CMe2)][X4]G[Phg]-NMe2): the Ki lay in the range of 0.001 to 0.1 µM.
